Measured values published in the supplement of paper PMC4967469.

Columns and labels:
Assay in all cases: Viability of human cancer cell lines after 72 h of drug (GDSC screen)
Gemcitabine = compound: Nc1ccn([C@@H]2O[C@H](CO)[C@@H](O)C2(F)F)c(=O)n1 [Gemcitabine]; details: top dose 1.024 µM
Method: (§1)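 Human cancer cell lines in 384-well plates, medium with 10% serum, drug for 72 h over a 256-fold dose range (nine 2-fold or five 4-fold steps up to the top dose). Adherent lines were fixed and stained with the nucleic acid dye Syto60, suspension lines read with resazurin; signal relative to control wells, capped at 0 and 100%. One two-parameter sigmoid per drug and line, fitted in a mixed model over all curves with the slope shared within a line.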

Nilotinib = compound: Cc1cn(-c2cc(NC(=O)c3ccc(C)c(Nc4nccc(-c5cccnc5)n4)c3)cc(C(F)(F)F)c2)cn1 [Nilotinib]; details: top dose 2 µM
Method: as §1

KIN001-270 = compound: Cc1ccc(Nc2cc(-c3cccc(N4C(=O)c5ccccc5C4=O)c3)ncn2)cc1NS(C)(=O)=O [KIN001-270]; details: top dose 20 µM; top dose inferred
Method: as §1

AUY922 = compound: CCNC(=O)c1noc(-c2cc(C(C)C)c(O)cc2O)c1-c1ccc(CN2CCOCC2)cc1 [AUY922]; details: top dose 0.256 µM; top dose inferred
Method: as §1

T0901317 = compound: O=S(=O)(c1ccccc1)N(CC(F)(F)F)c1ccc(C(O)(C(F)(F)F)C(F)(F)F)cc1 [T0901317]; details: top dose 10.24 µM; top dose inferred
Method: as §1

TW-37 = compound: CC(C)c1ccccc1Cc1cc(C(=O)Nc2ccc(S(=O)(=O)c3ccccc3C(C)(C)C)cc2)c(O)c(O)c1O [TW-37]; details: top dose 5 µM
Method: as §1

MP470 = compound: S=C(NCc1ccc2c(c1)OCO2)N1CCN(c2ncnc3c2oc2ccccc23)CC1 [MP470]; details: top dose 20 µM; top dose inferred
Method: as §1

LFM-A13 = compound: C/C(O)=C(\C#N)C(=O)Nc1cc(Br)ccc1Br [LFM-A13]; details: top dose 16 µM; top dose inferred
Method: as §1

Bicalutamide = compound: CC(O)(CS(=O)(=O)c1ccc(F)cc1)C(=O)Nc1ccc(C#N)c(C(F)(F)F)c1 [Bicalutamide]; details: top dose inferred
Method: as §1

[1] = top dose 1.024 µM, screen: GDSC drug entry 150
[2] = top dose 10 µM, screen: GDSC drug entry 1502

Row | Cell Line | AUC (Gemcitabine) | IC50 (Gemcitabine) [nM] | AUC (Nilotinib) | IC50 (Nilotinib) [nM] | AUC (KIN001-270) | IC50 (KIN001-270) [nM] | AUC (AUY922) | IC50 (AUY922) [nM] | AUC (T0901317) | IC50 (T0901317) [nM] | AUC (TW-37) | IC50 (TW-37) [nM] | AUC (MP470) | IC50 (MP470) [nM] | AUC (LFM-A13) | IC50 (LFM-A13) [nM] | AUC (Bicalutamide; [1]) | IC50 (Bicalutamide; [1]) [nM] | AUC (Bicalutamide; [2]) | IC50 (Bicalutamide; [2]) [nM]
1 | PANC-03-27 (pancreas, adherent) | 0.164 | 6.61 | 0.98 | > 2000 | 0.985 | > 20000 | 0.471 | 13.4 | 0.989 | > 10200 | 0.519 | 351 | 0.917 | > 20000 | 0.97 | > 16000 | 0.986 | > 1020 | 0.976 | > 10000
2 | NCI-H1781 (lung adenocarcinoma, adherent) | 0.227 | 10.3 | 0.989 | > 2000 | 0.985 | > 20000 | 0.756 | 87.4 | 0.989 | > 10200 | 0.452 | 231 | 0.989 | > 20000 | 0.974 | > 16000 | 0.989 | > 1020 | 0.975 | > 10000
3 | SKN (uterus, adherent) | 0.578 | 109 | 0.86 | > 2000 | 0.936 | > 20000 | 0.675 | 55 | 0.966 | > 10200 | 0.411 | 170 | 0.81 | 13400 | 0.982 | > 16000 | 0.975 | > 1020 | 0.966 | > 10000
4 | CHSA8926 (chondrosarcoma, adherent) | 0.98 | > 1020 | 0.97 | > 2000 | 0.98 | > 20000 | 0.978 | > 256 | 0.967 | > 10200 | 0.589 | 607 | 0.969 | > 20000 | 0.979 | > 16000 | 0.966 | > 1020 | 0.961 | > 10000
5 | KYSE-220 (oesophagus, adherent) | 0.301 | 17 | 0.985 | > 2000 | 0.983 | > 20000 | 0.642 | 40.5 | 0.986 | > 10200 | 0.448 | 224 | 0.98 | > 20000 | 0.968 | > 16000 | 0.986 | > 1020 | 0.982 | > 10000
6 | SCC-4 (head and neck, adherent) | 0.686 | 235 | 0.965 | > 2000 | 0.976 | > 20000 | 0.607 | 33.3 | 0.983 | > 10200 | 0.654 | 911 | 0.935 | > 20000 | 0.942 | > 16000 | 0.982 | > 1020 | 0.978 | > 10000
7 | ECC10 (stomach, suspension) | 0.805 | 545 | 0.92 | > 2000 | 0.927 | > 20000 | 0.749 | 86.2 | 0.976 | > 10200 | 0.542 | 409 | 0.865 | 19100 | 0.983 | > 16000 | 0.985 | > 1020 | 0.973 | > 10000
8 | PANC-02-03 (pancreas, adherent) | 0.746 |  | 0.974 | > 2000 | 0.983 | > 20000 | 0.687 | 59.9 | 0.953 | > 10200 | 0.681 | 1110 | 0.949 | > 20000 | 0.948 | > 16000 | 0.98 | > 1020 | 0.98 | > 10000
9 | UACC-62 (melanoma, adherent) | 0.829 | 628 | 0.983 | > 2000 | 0.978 | > 20000 | 0.747 | 80.8 | 0.98 | > 10200 | 0.309 | 91.5 | 0.952 | > 20000 | 0.957 | > 16000 | 0.987 | > 1020 | 0.965 | > 10000
10 | JHH-2 (liver, adherent) | 0.957 | > 1020 | 0.986 | > 2000 | 0.983 | > 20000 | 0.87 | > 256 | 0.984 | > 10200 | 0.719 | 1370 | 0.969 | > 20000 | 0.982 | > 16000 | 0.982 | > 1020 | 0.981 | > 10000
11 | HCC1954 (breast, adherent) | 0.887 | > 1020 | 0.977 | > 2000 | 0.984 | > 20000 | 0.941 | > 256 | 0.98 | > 10200 | 0.684 | 1120 | 0.955 | > 20000 | 0.984 | > 16000 | 0.975 | > 1020 | 0.952 | > 10000
12 | M059J (glioma, adherent) | 0.309 | 17.7 | 0.985 | > 2000 | 0.93 | > 20000 | 0.511 | 17.1 | 0.985 | > 10200 | 0.698 | 1180 | 0.975 | > 20000 | 0.983 | > 16000 | 0.985 | > 1020 | 0.967 | > 10000

By IC50 is meant the dose at which the fit gives 50% viability; where the fit passes the top or lowest dose, that dose stands as a limit. AUC sums up the same curve from the lowest dose to the 256-fold higher top dose: 1 means no effect, lower means more sensitive. For some assays here: A top dose marked as inferred comes from the curve model; the source does not state it. For some assays here: An entry number marks a drug with two screens in the source, which often give different values.
